# Results as given in publication PMC7819943, “Rice protein-binding microarrays: a tool to detect cis-acting elements near promoter regions in rice”.
# Some of the results follow.
# Molecular target: T1, OsWOX13 (Oryza sativa, UniProt Q5QMM3 1-267)
# T1 sequence: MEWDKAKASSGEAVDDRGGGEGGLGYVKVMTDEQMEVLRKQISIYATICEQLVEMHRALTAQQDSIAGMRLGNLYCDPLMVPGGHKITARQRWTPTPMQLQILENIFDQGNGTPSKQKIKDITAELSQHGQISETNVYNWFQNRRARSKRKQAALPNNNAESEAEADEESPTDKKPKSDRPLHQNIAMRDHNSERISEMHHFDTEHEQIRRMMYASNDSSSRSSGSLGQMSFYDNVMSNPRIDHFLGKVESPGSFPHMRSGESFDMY
# Assay: protein-binding microarray (RPBM); PBS, 2% BSA, 51.3 ng/ul salmon testes DNA, 50 uM zinc acetate, 200 nM TF, 25 C, 1 h; high values mean tight binding
# Conditions: protein: recombinant; tags: N-terminal polyhistidine and DsRed monomer fusion (pET32a); label: CyDye5-dUTP incorporated in the synthesized complementary strand; 3' TTTTT single-stranded linker to array surface; dsDNA, one strand shown
# How it was run: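 Per-feature fluorescence intensity (arbitrary units), read on an Axon 4000B scanner, is the binding signal. Transcription factors carrying an N-terminal polyhistidine tag and DsRed fusion were expressed in E. coli BL21-CodonPlus and purified on Ni–NTA. A custom Agilent array, made double-stranded by primer extension with Cy5-dUTP and blocked with 2% BSA, was incubated with 200 nM protein in PBS, 2% BSA, salmon testes DNA and 50 µM zinc acetate at 25 °C for 1 h and then washed.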
row,Sequence,binding signal
1,CATAAATTGTTGTTGTTTGTTACTAGAAGTTGTTTGGAAGCGGAGTCACCTAGTGCAG,16800 fluorescence intensity (a.u.)
2,CACCTAATGAAATTAGCTGTAGCACTTTGTTGGATGGTTTCGGAGTCACCTAGTGCAG,7290 fluorescence intensity (a.u.)
3,TTTAACTCAAGTATATTAATTAATCCATAGAAATCCTCTCCGGAGTCACCTAGTGCAG,6780 fluorescence intensity (a.u.)
4,TTTAAATAATCAAATAAATCAAAACAAAATAGATGATAACCGGAGTCACCTAGTGCAG,8520 fluorescence intensity (a.u.)
5,ATATTAATGGGCAAGTATTTTAATTGTTTGCATTTTATACCGGAGTCACCTAGTGCAG,4240 fluorescence intensity (a.u.)
6,GATCAATTTAAAATGAAAACACTAGTTTACCGTCTTCTTTCGGAGTCACCTAGTGCAG,6270 fluorescence intensity (a.u.)
7,CTTCTAATGGTCCATGATTTGGCTAAAGCATCAATTCTACCGGAGTCACCTAGTGCAG,3710 fluorescence intensity (a.u.)
8,TTGCTTAATTAATTATTAATGTAAGAAGGGTCTAACATTTCGGAGTCACCTAGTGCAG,34300 fluorescence intensity (a.u.)
9,TGGTGGTGGTGGTGGCTGTAGTGTGGAGGTGGTGGGGAGTCGGAGTCACCTAGTGCAG,10000 fluorescence intensity (a.u.)
10,AATTAGTAAATACTTAATTAATCATGAGAAAATGTATTGCCGGAGTCACCTAGTGCAG,3350 fluorescence intensity (a.u.)
11,TATGATTATCACAAGTAATATATAAATTATTAGTCAAGTTCGGAGTCACCTAGTGCAG,33600 fluorescence intensity (a.u.)
12,GCCTTGGTGATTGATCGGAAGAAGGAAATGCAGGTGAGCACGGAGTCACCTAGTGCAG,37900 fluorescence intensity (a.u.)
13,ATCTAAACAATTATTATACATTGTATTGTGCTTGTTAGGACGGAGTCACCTAGTGCAG,3620 fluorescence intensity (a.u.)
14,ATATTAATTAAGGGATGGAATGGTGTACTTACTACAATAACGGAGTCACCTAGTGCAG,17300 fluorescence intensity (a.u.)
15,GTTACAGTGTAATTACATGCAAGTTACAGTGTAATTACACCGGAGTCACCTAGTGCAG,7940 fluorescence intensity (a.u.)
16,ATAGATCATTTATATGTTTGACATGCATTTCATTATTTAGCGGAGTCACCTAGTGCAG,5490 fluorescence intensity (a.u.)
17,TTTAAATTTAGATTTGCATGTTTGTTTATTGGTTTATACCCGGAGTCACCTAGTGCAG,46200 fluorescence intensity (a.u.)
18,AATCGGATTAGATATAACATAATACTATAATCTGAACATGCGGAGTCACCTAGTGCAG,7180 fluorescence intensity (a.u.)
19,CGCGTGTGTGATTGCCTTTTGCTAGCCAAATTGTGGTTTTCGGAGTCACCTAGTGCAG,15000 fluorescence intensity (a.u.)
20,CTAATACTTAATTAATCACGCGCTAATAAACTACCTCGTTCGGAGTCACCTAGTGCAG,22300 fluorescence intensity (a.u.)
21,AATCATAACACACCTCAATCACTCCAATCTCAACCATAAGCGGAGTCACCTAGTGCAG,6210 fluorescence intensity (a.u.)

row,Sequence,binding signal
1,ATTTGACAAATAACTATTTGTCACCTCTATCTCAATGACACGGAGTCACCTAGTGCAG,6420 fluorescence intensity (a.u.)
2,CGATTTAAATTTTAAAATTTAAAGTTAAATTTTGAAAACTCGGAGTCACCTAGTGCAG,15400 fluorescence intensity (a.u.)
3,ATCATCATCAGTTTTATAATTATCCGAAGCAACAACAAACCGGAGTCACCTAGTGCAG,8500 fluorescence intensity (a.u.)
4,TGGAGAAAATTTGATATGATCAATCTTGACGGATAGCTCGCGGAGTCACCTAGTGCAG,8440 fluorescence intensity (a.u.)
5,GCTAATCATAGACTAATTAGACTCAAAAGATTAGTCTCGCCGGAGTCACCTAGTGCAG,52800 fluorescence intensity (a.u.)
6,GCTAATCATTATCTAAGATAAAGAGAGGCTGCTACCTGGACGGAGTCACCTAGTGCAG,5340 fluorescence intensity (a.u.)
7,CAGCGCCATCAATTATTTACCAATAGGGTTTGCTCTTAATCGGAGTCACCTAGTGCAG,3940 fluorescence intensity (a.u.)
8,TTTACTCAATTGACATTGGAGATGTTTATGAAATAATAGCCGGAGTCACCTAGTGCAG,3270 fluorescence intensity (a.u.)
9,ATATGTAATTATAATAATTTTCATTATTTACTCAATTAATCGGAGTCACCTAGTGCAG,21700 fluorescence intensity (a.u.)
10,TATATATATATATATATATATATATCGAAGCAAATTCCCACGGAGTCACCTAGTGCAG,29700 fluorescence intensity (a.u.)
11,TTTAATCAATTATGTTTAGTTAGTCTTTTAATTTCCGGCTCGGAGTCACCTAGTGCAG,28800 fluorescence intensity (a.u.)
12,CGATGGAGCAGCGGCGTCGTGTGGCCTTGGTTGCTTCGGACGGAGTCACCTAGTGCAG,6380 fluorescence intensity (a.u.)
13,GTAAATATATCATCAATCTAAATGATACCTACTGCATATACGGAGTCACCTAGTGCAG,10600 fluorescence intensity (a.u.)
14,ACACAGATTACGTGTAAATTGCGAGACAAATCTTTTAACCCGGAGTCACCTAGTGCAG,20500 fluorescence intensity (a.u.)
15,TTTGACTGAAAATTCTGAGTGTGCTTCCCCAGGTGTGGAGCGGAGTCACCTAGTGCAG,25800 fluorescence intensity (a.u.)
16,TTCTTTGTTGGATTGATGATCGCTTTTGTGTGGGAGAGGTCGGAGTCACCTAGTGCAG,4830 fluorescence intensity (a.u.)
17,ACATTAATATGAATATATCAATATAGATGTGGGAAGTGCTCGGAGTCACCTAGTGCAG,3220 fluorescence intensity (a.u.)
18,TCGGAAATTATGTATAGTTCGATGATACACATATCATTGACGGAGTCACCTAGTGCAG,5460 fluorescence intensity (a.u.)
19,AAGATCACATTTGATTGTGTGAGCCAAGTTTGGGAGGTCGCGGAGTCACCTAGTGCAG,5450 fluorescence intensity (a.u.)
20,TTCTCTAATTTATTAGAACGCCATATGACGACTTAGAAGCCGGAGTCACCTAGTGCAG,11600 fluorescence intensity (a.u.)
21,AAAATAATTATACCAATAGGAATGCCTTTATACCATCTTCCGGAGTCACCTAGTGCAG,9720 fluorescence intensity (a.u.)
